Scores with a large standard error are left out. Two further conditions of the source, in which the scores hardly spread, are not listed. Read del as a deletion of the residues named and ins as an insertion between two positions. For some of these results: How much ogerin was present is not stated here.
B1: GPR68, Q15743 (parent)
chain: MGNITADNSSMSCTIDHTIHQTLAPVVYVTVLVVGFPANCLSLYFGYLQIKARNELGVYLCNLTVADLFYICSLPFWLQYVLQHDNWSHGDLSCQVCGILLYENIYISVGFLCCISVDRYLAVAHPFRFHQFRTLKAAVGVSVVIWAKELLTSIYFLMHEEVIEDENQHRVCFEHYPIQAWQRAINYYRFLVGFLFPICLLLASYQGILRAVRRSHGTQKSRKDQIQRLVLSTVVIFLACFLPYHVLLLVRSVWEASCDFAKGVFNAYHFSLLLTSFNCVADPVLYCFVSETTHRDLARLRGACLAFLTCSRTGRAREAYPLGAPEASGKSGAQGEEPELLTKLHPAFQTPNSPGSGGFPTGRLA

Columns and labels:
[1] = variants of: B1; test: cAMP reporter score (Enrich2 score, wild type = 0); higher = more signal; HEK293T, FACS bins
[2] = variants of: B1; test: surface expression score (Enrich2 score, wild type = 0); higher = more signal; HEK293T, FACS bins

MGNITADNSSMSCTIDHTIHQTLAPVVYVTVLVVGFPANCLSLYFGYLQIKARNELGVYLCNLTVADLFYICSLPFWLQYVLQHDNWSHGDLSCQVCGILLYENIYISVGFLCCISVDRYLAVAHPFRFHQFRTLKAAVGVSVVIWAKELLTSIYFLMHEEVIEDENQHRVCFEHYPIQAWQRAINYYRFLVGFLFPICLLLASYQGILRAVRRSHGTQKSRKDQIQRLVLSTVVIFLACFLPYHFLLLVRSVWEASCDFAKGVFNAYHFSLLLTSFNCVADPVLYCFVSETTHRDLARLRGACLAFLTCSRTGRAREAYPLGAPEASGKSGAQGEEPELLTKLHPAFQTPNSPGSGGFPTGRLA [V246F]
cAMP reporter score ([1]; pH 5.5): 0.445 | cAMP reporter score ([1]; pH 6, modulator: ogerin): 0.287 | cAMP reporter score ([1]; pH 6.5, modulator: ogerin): -0.363 | surface expression score [2]: -0.389

MGNITADNSSMSCTIDHTIHQTLAPVVYVTVLVVGFPANCLSLYFGYLQIKARNELGVYLCNLTVADLFYICSLPFWLQYVLQHDNWSHGDLSCQVCGILLYENIYISVGFLCCISVDRYLAVAHPFRFHQFRTLKAAVGVSVVIWAKELLTSIYFLMHEEVIEDENQHRVCFEHYPIQAWQRAINYYRFLVGFLFPICLLLASYQGILRAVRRSHGTQKSRKDQIQRLVLSTVVIFLACFLPYHGLLLVRSVWEASCDFAKGVFNAYHFSLLLTSFNCVADPVLYCFVSETTHRDLARLRGACLAFLTCSRTGRAREAYPLGAPEASGKSGAQGEEPELLTKLHPAFQTPNSPGSGGFPTGRLA [V246G]
cAMP reporter score ([1]; pH 5.5): 0.808 | cAMP reporter score ([1]; pH 6): -0.816 | cAMP reporter score ([1]; pH 6, modulator: ogerin): 0.376 | cAMP reporter score ([1]; pH 6.5, modulator: ogerin): -0.497 | surface expression score [2]: -0.557

MGNITADNSSMSCTIDHTIHQTLAPVVYVTVLVVGFPANCLSLYFGYLQIKARNELGVYLCNLTVADLFYICSLPFWLQYVLQHDNWSHGDLSCQVCGILLYENIYISVGFLCCISVDRYLAVAHPFRFHQFRTLKAAVGVSVVIWAKELLTSIYFLMHEEVIEDENQHRVCFEHYPIQAWQRAINYYRFLVGFLFPICLLLASYQGILRAVRRSHGTQKSRKDQIQRLVLSTVVIFLACFLPYHHLLLVRSVWEASCDFAKGVFNAYHFSLLLTSFNCVADPVLYCFVSETTHRDLARLRGACLAFLTCSRTGRAREAYPLGAPEASGKSGAQGEEPELLTKLHPAFQTPNSPGSGGFPTGRLA [V246H]
cAMP reporter score ([1]; pH 5.5): -1.78 | cAMP reporter score ([1]; pH 6): -1.68 | cAMP reporter score ([1]; pH 6, modulator: ogerin): -2.1 | cAMP reporter score ([1]; pH 6.5, modulator: ogerin): -0.279 | surface expression score [2]: -1.95

MGNITADNSSMSCTIDHTIHQTLAPVVYVTVLVVGFPANCLSLYFGYLQIKARNELGVYLCNLTVADLFYICSLPFWLQYVLQHDNWSHGDLSCQVCGILLYENIYISVGFLCCISVDRYLAVAHPFRFHQFRTLKAAVGVSVVIWAKELLTSIYFLMHEEVIEDENQHRVCFEHYPIQAWQRAINYYRFLVGFLFPICLLLASYQGILRAVRRSHGTQKSRKDQIQRLVLSTVVIFLACFLPYHILLLVRSVWEASCDFAKGVFNAYHFSLLLTSFNCVADPVLYCFVSETTHRDLARLRGACLAFLTCSRTGRAREAYPLGAPEASGKSGAQGEEPELLTKLHPAFQTPNSPGSGGFPTGRLA [V246I]
cAMP reporter score ([1]; pH 5.5): 0.317 | cAMP reporter score ([1]; pH 6): 0.922 | cAMP reporter score ([1]; pH 6, modulator: ogerin): 0.326 | cAMP reporter score ([1]; pH 6.5, modulator: ogerin): -0.657 | surface expression score [2]: -0.436

From the GPR68 mutational scans of Howard et al. (2025)
